Reference: the supplement of paper PMC3334620
In all, about 33,000 sequences were measured (“E-score (-0.5 to 0.5)”: median about -0.021, highest 2% from about 0.32 on). Some of the results follow.

The sequences below were run against T1, Zap1 (UniProt P47043) (assay: PBM E-score (8-mer binding enrichment) (E-score (-0.5 to 0.5)); higher = stronger / more preferred TF binding; most listed sequences are background and not binding sites). Settings: protein concentration: 200 nM; construct: GST-full length.
T1 sequence: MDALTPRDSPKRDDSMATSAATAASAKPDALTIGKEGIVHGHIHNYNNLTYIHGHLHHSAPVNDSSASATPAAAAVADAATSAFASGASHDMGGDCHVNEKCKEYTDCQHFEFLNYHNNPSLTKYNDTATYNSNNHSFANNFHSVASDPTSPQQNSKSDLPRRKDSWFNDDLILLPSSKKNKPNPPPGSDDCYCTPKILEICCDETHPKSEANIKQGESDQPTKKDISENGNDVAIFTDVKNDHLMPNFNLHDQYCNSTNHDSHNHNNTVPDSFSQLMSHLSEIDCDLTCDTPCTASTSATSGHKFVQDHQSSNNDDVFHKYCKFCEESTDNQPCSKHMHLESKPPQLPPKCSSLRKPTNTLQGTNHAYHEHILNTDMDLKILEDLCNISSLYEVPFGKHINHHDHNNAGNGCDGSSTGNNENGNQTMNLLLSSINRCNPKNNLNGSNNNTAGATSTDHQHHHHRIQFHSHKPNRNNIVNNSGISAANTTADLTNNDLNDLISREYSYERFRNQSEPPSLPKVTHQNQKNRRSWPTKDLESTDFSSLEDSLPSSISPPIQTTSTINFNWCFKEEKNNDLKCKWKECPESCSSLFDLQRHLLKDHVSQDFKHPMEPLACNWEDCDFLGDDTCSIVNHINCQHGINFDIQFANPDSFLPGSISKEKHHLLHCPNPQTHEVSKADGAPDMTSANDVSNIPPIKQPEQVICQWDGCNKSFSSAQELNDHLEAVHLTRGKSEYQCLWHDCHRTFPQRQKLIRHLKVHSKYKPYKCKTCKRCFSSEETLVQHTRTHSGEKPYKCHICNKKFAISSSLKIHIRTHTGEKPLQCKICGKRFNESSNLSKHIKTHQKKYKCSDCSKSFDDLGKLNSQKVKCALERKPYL
Procedure, shortened: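 Universal all-10-mer Agilent arrays, double-stranded by primer extension on fresh or once-stripped slides, were probed with about 100-200 nM GST-tagged yeast transcription factors made by PURExpress. Fluorescent anti-GST detected bound protein, and masliner normalised the scans. E-scores from the Universal PBM Analysis Suite were given to each ungapped eight-base word pooled with its reverse complement.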

Sequence	PBM E-score
GTCGACTA	0.0682
ACTTGGGA	-0.0501
AATTCAAG	1e-05
GCTCAAAA	0.132
CTCATGCA	-0.0931
TTATTAAA	0.297
GGCATGCC	0.0452
ATTTTCTC	0.00271
AGTAGCCA	-0.0878
AAAGACCT	0.136
AGATTCGA	0.0773
GATTGATA	0.144
CTGATAGA	0.00527
CATGCTGC	-0.284
CCCTTATA	0.15
AAGGAAAG	-0.165
AACGGGGC	-0.0823
CTCAAGTC	-0.0858
AACGTCAA	-0.0955
CTTGTGAA	-0.039
AAACGCCA	-0.0933
AATATGGT	0.255
ATAGGACC	0.149
AAGGTGCA	0.0139
CGTAGTCC	-0.256

Sequence	PBM E-score
GATGGGCA	-0.132
CAAGTCAA	0.0562
ACAGTCCA	0.0812
TAATGCTA	0.141
GGTTCCTA	0.132
ACAAGAGG	0.107
CAACCATG	0.0992
AGCTTGAG	-0.205
CCGCGGCA	-0.00024
GTGGCTCA	-0.184
ATCTCCAG	-0.0556
AAAATCTG	0.195
TAGTAGCA	-0.0494
CGCTTCCC	-0.231
ATCTGTGA	-0.0286
CGTATGAG	-0.24
AAAGCACC	0.0837
AGTTCCAG	-0.0153
AGAGTTCG	0.0249
GTGACGTA	-0.104
CGTAAGGA	-0.0863
ATCGATGA	0.055
CCTCTCCC	-0.118
CCAGTCGC	-0.137
ACCTACGA	0.0748

Sequence	PBM E-score
AGTGCCGC	-0.241
CAGGCCTA	-0.0344
CCTCAGAA	-0.0154
CACTGATA	-0.0881
GATGGGAA	-0.0718
AGGTTAAG	0.383
CGCCCCGA	0.0459
GCACAAAC	-0.124
CCTGAAGG	0.25
CCCCAACA	-0.0862
CGGCCTAA	0.0382
CGGTAACG	0.0507
GGCGAGCC	-0.208
AGATGAAA	-0.0457
CTAGCGAA	-0.221
CATCGATC	-0.115
CAGACGCA	-0.0635
ACAAAATA	0.212
CGTGTAGC	-0.153
CCGAACAG	-0.0301
ACTCTAAC	0.0768
GATGAATC	-0.027
AGCCGCCC	-0.119
CTATACTC	-0.287
CTCGCGGC	-0.0998

Sequence	PBM E-score
AATTCTTG	-0.0794
AGTCGCAC	-0.107
AGTGAGTG	-0.161
CGATTCCC	-0.0888
AACGACGC	-0.0288
ATCCCTTC	-0.157
ACTCTCCA	-0.134
CGCCCAAA	0.0103
CAACCCGC	0.251
GCCAGTGA	-0.209
CGCTGAAC	0.0666
ACAATATG	0.102
CCATAAAA	0.12
ACATCACC	-0.0522
AACGCCTG	-0.194
CACTTACG	0.0119
AATATATT	0.269
CTTGAACC	-0.0192
TCACAGAA	-0.00307
GACAGCCA	-0.146
CTTTGTGA	0.0154
CCTTCTCA	-0.053
CGGAAGTC	-0.19
AGCTTTGA	0.102
AAAGAGTA	-0.00021

Sequence	PBM E-score
ACCCGGCC	-0.0273
CCTGAAAG	0.156
AGGCAACG	-0.316
GATTGGTA	-0.0727
GACCCCTC	0.138
GACCACAC	0.0441
GCGCGCGC	0.263
GGCCCTAC	0.0088
CAGCCGGC	0.0305
CAGGGTAC	0.437
AACCCGAT	0.31
GGGAGTGA	-0.156
AGAAGGCT	-0.308
CAGCGCTA	-0.119
TACGGTAA	0.256
CCTGACCC	0.29
CTAACCAA	0.262
CCTCGAAG	0.185
ATAAAGTC	0.0837
AGGTTATA	0.469
GGCTTCAA	-0.058
CCGTAGTA	-0.0622
ATACTGAT	0.121
GCTGAACA	0.149
CCGAACAC	0.15

Sequence	PBM E-score
GTAGTCAA	-0.0319
AAGTATGA	-0.0263
AAGTGTTC	-0.00496
CGGGAACC	-0.00143
ATTGCTAC	-0.0268
AAGAGAAT	-0.0743
GTGTAACA	0.0444
TCGTAAGA	-0.0388
AGTTAAAA	0.247
GCCCCTAC	-0.0823
GGATAGCC	-0.12
ACAAGGTA	0.277
AATAGCGC	-0.0844
AAAGGACC	0.111
CTCTGAGC	-0.135
GGTCCACA	-0.126
AACACTCG	0.0851
CTACTGGC	-0.244
CTGGCCCC	-0.0927
CTCCAGCA	-0.176
ATGACCAA	0.211
AATGTGAT	0.0415
GTCATGAA	0.231
AAGATCGA	0.0527
CTCGTCCA	-0.09

Sequence	PBM E-score
AGGGTGTA	0.262
AGCGCACC	-0.143
GTCGACCA	0.0364
GATTCACC	-0.0698
ACGGTCGC	0.00876
AGGCTACT	-0.135
AAATGAGG	-0.092
ATGTCGAC	0.027
GCCTCGCC	-0.192
GTATATAC	0.074
AAACTCCG	-0.0502
ACCTTTAA	0.383
TCGACGCA	-0.0587
CATTAAGC	0.0153
CTGTCATC	-0.138
GCGGGCTA	-0.198
AAACCCCG	0.198
GATTACTA	0.09
CCGTACTA	0.163
ACGAGCAT	-0.24
CCAGGGTA	0.323
CACTAGCG	-0.00843
